# Measured values taken from the supplement of paper PMC9446081.
# The whole screen tested about 39,000 compounds, of which about 220 (0.56%) showed activity. This is one part of the list.
# System: Escherichia coli K-12 BW25113
# Assay: relative growth (OD600 normalised to plate interquartile mean) (fraction); higher = less growth inhibition, active = 0.2 or less
# Settings: 50 µM; LB; incubation time: overnight (16-24 h)
# 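Also: static incubation at 37 °C against the wild-type strain, values averaged over two biological replicates.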
row,SMILES,relative growth
1,CCOC(=O)[C@@H](C)n1ncn2cccc2c1=O,inactive: 1.01
2,C[C@H](CO)N1C[C@H](C)[C@@H](CN(C)S(=O)(=O)c2ccccc2)Oc2c(NC(=O)C3CCOCC3)cccc2C1=O,inactive: 1
3,C[C@H]1CN([C@@H](C)CO)S(=O)(=O)c2ccc(-c3ccc(C(=O)N(C)C)cc3)cc2O[C@H]1CN(C)C(=O)C1CCC1,inactive: 1.01
4,C[C@@H]1CCCCO[C@@H](CN(C)Cc2ccc(Cl)c(Cl)c2)[C@H](C)CN([C@H](C)CO)C(=O)c2cc(NS(=O)(=O)c3ccccc3)ccc2O1,inactive: 1.01
5,COCC(=O)N1C[C@H](C)[C@H](OC)CN(C)C(=O)c2cc(NC(=O)Nc3ccccc3)ccc2OC[C@@H]1C,inactive: 1
6,C[C@H]1CCCCO[C@H](CN(C)C(=O)C2CCCCC2)[C@@H](C)CN([C@@H](C)CO)C(=O)c2cc(NS(=O)(=O)c3ccc(Cl)cc3)ccc2O1,inactive: 1.03
7,CO[C@@H]1CN(C)C(=O)c2ccc(NS(=O)(=O)CC(F)(F)F)cc2OC[C@@H](C)N(Cc2nccs2)C[C@@H]1C,inactive: 1
8,Cc1noc(C)c1NC(=O)N(C)C[C@H]1OCCCC[C@H](C)Oc2ccc(NC(=O)C3CCCCC3)cc2C(=O)N([C@@H](C)CO)C[C@H]1C,inactive: 0.998
9,C[C@@H]1CN([C@H](C)CO)C(=O)c2c(c3ccccc3n2C)-c2ccccc2CO[C@@H]1CN(C)Cc1ccc2c(c1)OCO2,inactive: 1.01
10,O=C(NCc1cccc(F)c1)[C@@H]1[C@@H](CO)[C@@H]2Cn3c(cccc3=O)[C@H]1N2C(=O)c1cnccn1,inactive: 1.02
11,C[C@H]1CN([C@@H](C)CO)S(=O)(=O)c2ccc(-c3cncnc3)cc2O[C@H]1CN(C)C(=O)Cc1ccncc1,inactive: 1.01
12,C[C@@H]1CN([C@@H](C)CO)C(=O)c2cc(NC(=O)Cc3ccccc3)ccc2O[C@@H](C)CCCCO[C@H]1CN(C)Cc1ccccc1,inactive: 0.953
13,CO[C@H]1CN(C)C(=O)c2cc(NS(C)(=O)=O)ccc2OC[C@@H](C)N(C(=O)CN(C)C)C[C@H]1C,inactive: 0.991
14,C[C@@H]1CN([C@@H](C)CO)C(=O)c2cc(C#Cc3ccccc3F)cnc2O[C@H]1CN(C)S(=O)(=O)c1ccccc1F,inactive: 1.04
15,C[C@@H]1CN([C@H](C)CO)C(=O)CCCn2nncc2CO[C@@H]1CN(C)C(=O)Nc1ccc(C(C)(C)C)cc1,inactive: 1.01
16,CO[C@@H]1CN(C)C(=O)c2ccc(NS(=O)(=O)c3ccccc3)cc2OC[C@@H](C)N(C(=O)NC(C)C)C[C@@H]1C,inactive: 0.977
17,C[C@H](CO)N1C[C@H](C)[C@H](CN(C)C(=O)Nc2cccc3ccccc23)OCCCC[C@H](C)Oc2ccc(N(C)C)cc2C1=O,inactive: 1
18,C[C@@H]1CN([C@@H](C)CO)C(=O)CCCn2nncc2CO[C@@H]1CN(C)C(=O)Nc1ccc(N2CCCCC2)cc1,inactive: 1
19,C[C@H](CO)N1C[C@H](C)[C@@H](CN(C)C(=O)Cc2ccncc2)Oc2cc(C#CC3CC3)ccc2S1(=O)=O,inactive: 1.01
20,C[C@H](CO)N1C[C@H](C)[C@H](CN(C)S(=O)(=O)c2cn(C)cn2)OCc2ccccc2-c2ccccc2C1=O,inactive: 0.996

row,SMILES,relative growth
1,C[C@@H]1CN([C@H](C)CO)C(=O)CCCn2nncc2CO[C@H]1CN(C)C(=O)Nc1ccc(N2CCCCC2)cc1,inactive: 0.955
2,N[C@@H]1CC[C@H](CCn2cc(-c3ccccn3)nn2)O[C@H]1CO,inactive: 0.924
3,C[C@H](CO)N1C[C@H](C)[C@@H](CN(C)Cc2ccc(Cl)c(Cl)c2)OCCCC[C@H](C)Oc2ccc(NS(=O)(=O)c3cn(C)cn3)cc2C1=O,inactive: 0.867
4,COc1ccc(CCNC(=O)[C@@H]2c3ccccc3C(=O)N(Cc3ccccc3OC)[C@H]2c2ccc(CO)cc2)cc1,inactive: 0.937
5,C[C@H]1CN([C@@H](C)CO)C(=O)Cc2cc(NS(=O)(=O)c3cccs3)ccc2O[C@H]1CN(C)S(=O)(=O)c1cn(C)cn1,inactive: 1.01
6,C[C@@H]1CN([C@@H](C)CO)C(=O)c2cc(NS(=O)(=O)c3cccs3)ccc2O[C@@H]1CN(C)CC1CC1,inactive: 0.979
7,C[C@@H]1CN([C@@H](C)CO)C(=O)c2cc(/C=C/c3ccccc3)cnc2O[C@@H]1CN(C)C(=O)c1cnccn1,inactive: 1.01
8,C[C@@H]1CN([C@@H](C)CO)C(=O)c2cc(C#Cc3ccc(F)cc3)cnc2O[C@@H]1CN(C)CC1CCOCC1,inactive: 0.993
9,Cc1ccc(S(=O)(=O)N(C)C[C@@H]2Oc3cc(C#Cc4ccccc4)ccc3S(=O)(=O)N([C@@H](C)CO)C[C@@H]2C)cc1,inactive: 1.05
10,C[C@@H]1CCCCO[C@@H](CN(C)Cc2ccc(Cl)c(Cl)c2)[C@H](C)CN([C@@H](C)CO)C(=O)c2cc(NS(=O)(=O)c3ccc(Cl)cc3)ccc2O1,inactive: 1.02
11,Cc1ccc(S(=O)(=O)N(C)C[C@H]2OCCCC[C@H](C)Oc3ccc(NC(=O)NC4CCCCC4)cc3C(=O)N([C@@H](C)CO)C[C@@H]2C)cc1,inactive: 0.992
12,CN1CCCN(C[C@@]2(O)CCNC2)CC1,inactive: 1.03
13,CC(C)[C@@H](C(=O)O)n1cnnn1,inactive: 0.996
14,Cc1cc(N)c2ccccc2[n+]1CCCCCCCCCC[n+]1c(C)cc(N)c2ccccc21.[Cl-].[Cl-],inactive: 0.627
15,N#Cc1cn(C2CCCCC2)c(=O)[nH]c1=O,inactive: 1.03
16,COc1cccc(S(=O)(=O)Nc2ccc3c(c2)OC[C@H](C)N(C(=O)Cc2cccnc2)C[C@H](C)[C@@H](OC)CN(C)C3=O)c1,inactive: 0.996
17,C[C@H](CO)N1C[C@H](C)[C@H](CN(C)Cc2ccc(Oc3ccccc3)cc2)Oc2ccc(NC(=O)C3CCCCC3)cc2CC1=O,inactive: 1.01
18,COc1ccc(CN(C)C[C@@H]2Oc3c(NC(=O)C4CCOCC4)cccc3C(=O)N([C@H](C)CO)C[C@H]2C)cc1,inactive: 0.99
19,C[C@@H]1CN([C@H](C)CO)C(=O)Cc2cc(NS(C)(=O)=O)ccc2O[C@H]1CN(C)C(=O)Nc1ccc2c(c1)OCO2,inactive: 0.994
